Assay results taken from the supplement of paper PMC3334620.
The full ranking holds about 33,000 sequences; the median of “E-score (-0.5 to 0.5)” is about -0.017, and the highest 2% start at about 0.3. The list shows a part of the results.

molecular target: T1, Sut1 (UniProt P53032); assay: PBM E-score (8-mer binding enrichment) (E-score (-0.5 to 0.5)); higher = stronger / more preferred TF binding; most listed sequences are background and not binding sites; settings: protein concentration: 200 nM; construct: GST-full length
T1 sequence: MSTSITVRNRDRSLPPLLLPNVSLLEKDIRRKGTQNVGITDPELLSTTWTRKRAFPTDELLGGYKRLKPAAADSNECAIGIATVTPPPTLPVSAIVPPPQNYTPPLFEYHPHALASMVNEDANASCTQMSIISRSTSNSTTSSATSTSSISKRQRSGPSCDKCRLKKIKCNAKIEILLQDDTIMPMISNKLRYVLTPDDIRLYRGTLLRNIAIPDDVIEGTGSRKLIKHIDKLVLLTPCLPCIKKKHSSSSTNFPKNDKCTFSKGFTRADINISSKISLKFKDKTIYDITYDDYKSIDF
Description: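 Universal 'all 10-mer' protein binding microarrays (Agilent AMADID 015681) probed with GST-tagged S. cerevisiae TFs (full-length or DBD) made by in vitro transcription/translation (PURExpress), about 100-200 nM. Bound TF was detected with fluorescent anti-GST. Each ungapped 8-mer (which stands for itself and its reverse complement) is scored by the PBM enrichment score (E-score), a modified Wilcoxon-Mann-Whitney statistic from -0.5 to +0.5, computed with the Universal PBM Analysis Suite. Scale: above 0.35 generally sequence-specific binding.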

Sequence | PBM E-score
AGACTAAG | -0.08
ATTTCACG | 0.097
CCATAACG | -0.052
GAGCCTGA | -0.0214
GGAAAATA | 0.226
AACGTCTA | 0.0273
ATAACTTC | 0.156
CCCTTGAG | -0.142
GCCACTGA | -0.118
GAAGGTTA | 0.0509
AAGGAGGA | -0.173
GCCAGAGA | -0.213
CATGAGGG | -0.23
GTAGAGGA | -0.0611
CATTTGTC | 0.126
CATACTGA | 0.0321
ACCCTCGG | 0.0508
GACATACA | 0.196
ACTAACTG | 0.173
AACGCCGT | -0.0439
AATCAGCG | 0.0776
GCTGTATA | -0.0571
ACACTGGA | -0.0901
GCATGGGA | -0.265
AAATTCTC | 0.0733

Sequence | PBM E-score
GATCCCAA | 0.0759
CGACCTGA | -0.184
CCTATTGC | -0.0728
AAATACCT | 0.116
AAGACTGC | -0.129
ACACAGCA | 0.0686
TAAATAGA | 0.0796
AGCGACTG | -0.0885
CAGGAGCA | -0.0774
GCGGCCGA | -0.139
CATCGTCC | -0.0367
ATCACACG | -0.0185
ATTCTGAA | 0.0968
CGGTTTGA | -0.0544
AGGGTTTG | -0.0833
CACCGCGC | -0.135
AAGTTTAG | 0.141
AGCCTCAG | -0.139
CCGAGCGG | 0.0656
AGGAATCG | 0.0824
CATGGTGC | -0.174
GTCATTTA | 0.0178
CGGTTTGC | -0.0302
AAAGATTG | -0.0192
ACTTAGGG | -0.0378

Sequence | PBM E-score
GGGCGGCA | -0.153
CTGAATCC | -0.0454
GGATGAGA | -0.0777
ATTGGTGA | 0.0125
CGTGGTGC | -0.117
ATTACACA | 0.234
CCACATGC | -0.00682
GAGTTCAA | 0.152
ACCGCGAT | 0.117
AAGATCCC | -0.0518
AGGCGATC | -0.0705
TCTTCTCA | 0.143
CGCGGGAG | -0.257
GCGCCAAC | -0.041
ATTAAAAC | 0.296
ACCAGAGT | -0.256
GATCCTGC | -0.18
AGAGTCCT | -0.114
GACCCAGA | -0.0368
CACTTATG | 0.0725
TACTGCCA | -0.175
CCCGAAGC | -0.166
AGTGTACC | -0.273
CTTTTTTC | 0.162
GCCGGCGC | 0.089

Sequence | PBM E-score
CTGGTTCC | 0.00794
TAGCCCGA | -0.14
CCGATGAA | 0.16
ATGCGCCG | 0.0604
ACTACGAT | 0.0234
AGTGCGCA | -0.042
CAGGAGCC | -0.295
AGGTTGGC | -0.015
GTGGCACA | -0.278
TGATTCCA | -0.0562
ATGCGCTC | -0.0384
ACACCTTA | 0.0334
CACATGTC | -0.162
AATGCAGG | -0.0157
ATTGTCGA | 0.0452
ACATAAGA | 0.215
AGATTCTC | 0.104
CTGATCAG | 0.0171
AACAATAG | 0.00653
CGTATCAA | 0.0679
GCACTTGA | -0.219
ATCACGAC | -0.154
CAATTCCG | 0.305
GACAGACC | -0.173
AACAGCAG | 0.057

Sequence | PBM E-score
AGATGCAA | 0.00695
AACAGACA | 0.0562
CATCTACC | 0.0105
AACACGGA | 0.278
ATAGTGCG | 0.0358
ACTAAGTA | 0.0257
AGGTATGC | 0.00804
CCGGCCAC | 0.0457
AAGGGCGC | -0.146
TAAATAAA | 0.247
CAGCGTTA | -0.187
CGGACTTA | 0.492
GCAGGCGA | -0.248
GACAGGTC | -0.0333
TCGGAGAA | 0.436
CCTTAAGC | -0.198
ACTGGGGC | -0.231
CGACGAGC | -0.149
AGGACATG | -0.265
TCGAGCAA | 0.0639
ATAGGCGA | -0.105
GGCTGACC | -0.205
CGTTAGTA | 0.0878
AACAATCG | -0.091
CGGTCTAC | -0.0329

Sequence | PBM E-score
GATAACCA | 0.068
CGTCCGAG | 0.149
AACTAGTG | 0.0498
AGACCTAG | -0.181
AGTCGGGG | 0.0551
CAATCCTA | -0.00398
ACAGTAAC | 0.086
CCCCTAGC | -0.354
GGCACGCA | -0.0969
CACTGCTA | -0.0464
ACGCGGGG | -0.0279
AGACGCTC | -0.2
AGATCCCA | -0.0528
CTATCACC | -0.106
CTTTACAA | 0.156
CTTCTTGA | 0.0289
TATGTCGA | 0.0764
CTCGTTAC | -0.0946
AAATACGT | 0.115
CTCTGCGA | -0.0656
CTTGTCTA | 0.0157
AACGAACG | 0.037
CCGACCCC | -0.278
AAGGCTCC | -0.0622
GGAGTCAA | 0.134

Sequence | PBM E-score
AGATTGTC | 0.0787
ACCAGAGA | -0.075
ACTGGACG | -0.186
CAGCTGGA | -0.104
GTTAACGA | -0.028
GGCGAATA | -0.0185
GCACTAAA | 0.228
AGTATTAT | 0.0963
GCTAGGCC | -0.203
AACTATGG | -0.0313
AGAACTTC | 0.0323
CTATTTGA | 0.206
AACTAGGA | 0.0329
CCCACCCA | -0.132
GAAGATAC | 0.0856
TAATGTCA | -0.0654
AGGACAGG | -0.0615
CAAAAATG | 0.145
AAAGGTTG | 0.0238
CCTGACGC | -0.333
AACGTTTG | 0.0521
CAGCTAGA | -0.072
